Measurements from PubChem BioAssay AID504832 (National Center for Advancing Translational Sciences (NCATS), 2011).
Out of some 310,000 compounds screened, about 18,000 (5.8%) were called active. The inconclusive results got no clear call from the source; some entries with a clear call stand among them for comparison. The call rests on the fitted dose curve; in most records, active means well fitted inhibition curve with a large enough effect; inconclusive means small, poorly fitted or top-dose-only effect, or another doubt; inactive means no such curve, though single readings can be large or run the other way. Potencies of inconclusive entries are left out as doubtful fits.
Potency means the concentration at half of the fitted maximal effect; tags describe the fitted curve by direction and shape.

Test: Primary qHTS for delayed death inhibitors of the malarial parasite plastid, 48 hour incubation
Settings: P. falciparum luciferase growth in erythrocytes; series mostly up to 28.7 µM
Outline: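 First compound was added to culture medium, then infected red cells at 0.1% parasitemia and 2% hematocrit (final). After incubation at 37 C under 5% CO2, luciferase detection reagent was dispensed and light output recorded.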
In the case of `CCOC(=O)c1c(N)n(CC(C)NC(=O)C2CC2)c2nc3ccccc3nc12` (configuration not stated), the Potency is reported as inconclusive [inhibitor, single point].
In the case of `CCOCc1c(C(=O)N2CCN(Cc3ccc(Br)s3)CC2)oc2ccccc12`, the Potency is reported as active: 13.1 µM.
For `COc1ccccc1CNC(=O)COC(=O)c1nccnc1N`, the Potency was “inactive”.
With `COc1ccc(C(=O)NC(C)c2ccccc2)cc1Br` (configuration not stated) the Potency was “inactive”.
For `CC(=O)NCC(=O)Nc1ccc(Br)cc1C(=O)c1ccccc1`, the Potency was “inactive”.
For `Cc1c(OCc2ccccc2)c(=O)ccn1Cc1ccccc1`, the Potency was inconclusive [inhibitor, single point].
With `NS(=O)(=O)c1ccc(CCNC(=O)C2CCCN2S(=O)(=O)c2cccc3nsnc23)cc1` (configuration not stated) the Potency was “inactive”.
For `COc1ccc(-c2nn(-c3ccccc3)cc2C(=O)NC(=S)Nc2cc(Cl)ccc2Cl)cc1`, the Potency was active: 2.94 µM.
For `CC(NC(=O)c1nn(C)c(=O)c2ccccc12)c1ccccc1` (configuration not stated), the Potency was inconclusive [inhibitor, single point].
With `Cc1nn(CCC(=O)NNC(=S)NCC(C)C)c(C)c1Br` the Potency was inconclusive [inhibitor, single point].
For `Cc1ccc(-c2nc3ccccc3[nH]2)cc1NC(=O)c1sc2ccccc2c1Cl`, the Potency was inconclusive [inhibitor, full curve, poor fit].
With `c1ccc(N2CCCCC2)c(Nc2nc3ccccc3n3cnnc23)c1` the Potency was inconclusive [inhibitor, single point].
With `CCc1nnc(N/N=C/c2cc(C)c(C)cc2C)n1N` the Potency was “inactive”.
For `CCn1cc(C(=O)O)c(=O)c2cc(F)c(N3CCN(C(=S)NC(=O)c4cccc(C)c4)CC3)cc21`, the Potency was inconclusive [inhibitor, partial curve, poor fit].
In the case of `CN(C)CCCNS(=O)(=O)c1ccc(N2CCN(Cc3ccc4c(c3)OCO4)CC2)c([N+](=O)[O-])c1`, the Potency is reported as active: 11.7 µM.
With `CCN1CCCC1CNC(=O)c1ccc2c(c1)NC(=O)/C(=C\c1ccc(OC)c(OC)c1)S2` (configuration not stated) the Potency was active: 4.65 µM.
With `CCN(CC)C(=O)c1sc(NC(=S)N2CCN(C(=O)C3CCCO3)CC2)c(C(=O)OC)c1C` (configuration not stated) the Potency was inconclusive [inhibitor, partial curve, poor fit].
With `CC(=O)Oc1ccc(-c2nc3ccccc3c(=O)o2)cc1` the Potency was inconclusive [inhibitor, partial curve, poor fit].
For `Cc1nn(C)c(C(=O)NN)c1Cl`, the Potency was “inactive”.
For `COc1ccccc1NCCC(=O)OCC(=O)NC1CC1`, the Potency was “inactive”.
In the case of `Cc1cc(C(=O)Nc2nnc(-c3ccccc3)s2)no1`, the Potency is reported as inconclusive [inhibitor, single point].
For `Cn1c(NCc2ccco2)nc2c1c(=O)n(Cc1ccc(Cl)c(Cl)c1)c(=O)n2C`, the Potency was “inactive”.
With `O=C(NC12CC3CC(CC(C3)C1)C2)c1ccccc1O` the Potency was active: 7.38 µM.
With `COCCNc1nc(C)cc(-c2cc(C(=O)NC3CCCC3)on2)n1` the Potency was inconclusive [inhibitor, partial curve, poor fit].
With `CCC1C(=O)N(C)CCc2ccccc21` (configuration not stated) the Potency was “inactive”.
With `Cc1[nH]nc2c1C(c1cccs1)C1=C(CC(C)(C)CC1=O)N2` (configuration not stated) the Potency was inconclusive [inhibitor, partial curve].
In the case of `CCN(Cc1ccccc1)S(=O)(=O)c1cc(C(=O)NCC2CCCCC2)ccc1OC`, the Potency is reported as inconclusive [inhibitor, partial curve].
In the case of `Cc1noc(C)c1CSc1nc2ccccc2c(=O)n1-c1ccc(F)cc1F`, the Potency is reported as inconclusive [inhibitor, partial curve].
For `Cc1nc(-c2ccccc2)sc1C1(C)CC(c2cccc([N+](=O)[O-])c2)=NO1` (configuration not stated), the Potency was “inactive”.
In the case of `S=C(NCc1ccncc1)Nc1ccc(Br)cc1`, the Potency is reported as inconclusive [inhibitor, single point].
In the case of `CCN1CCN(c2ccc(NC(=O)c3cc(S(=O)(=O)N4CCCC4)ccc3Cl)cc2)CC1`, the Potency is reported as inconclusive [inhibitor, single point].
For `CCOC(=O)c1c(NC(=O)c2ccccc2N(C)S(=O)(=O)c2ccccc2)sc2c1CCCC2`, the Potency was inconclusive [inhibitor, single point].
With `C=CCN(C(=O)CCC(=O)Nc1cc(C)on1)C(C(=O)NC1CCCC1)c1ccc(OC)cc1OC` (configuration not stated) the Potency was inconclusive [inhibitor, partial curve].
With `COc1ccc(CN(C(=O)c2ccc(CN3CCOCC3)o2)C(C(=O)NCC2CCCO2)c2ccc(F)cc2)cc1` (configuration not stated) the Potency was inconclusive [inhibitor, single point].
In the case of `O=C(CSc1ccc2nnc(-c3ccccc3)n2n1)N1CCCc2ccccc21`, the Potency is reported as active: 13.1 µM.
For `O=C1C=C(c2cnc3ccccc3c2)C[C@@H](c2ccc3c(c2)OCO3)C1`, the Potency was “inactive”.
With `CCOC(=O)c1cnc(-n2nc(C)cc2C)nc1Nc1ccc(N(C)C)cc1` the Potency was active: 5.22 µM.
In the case of `CCOc1ccc(-n2cc(-c3ccc(OC)c(OC)c3)[nH]c2=S)cc1`, the Potency is reported as inconclusive [inhibitor, single point].
In the case of `CC(Sc1nnc2ccccn12)C(=O)NCc1ccc2c(c1)OCO2` (configuration not stated), the Potency is reported as inconclusive [inhibitor, full curve, poor fit].
In the case of `N#C/C=C\Oc1ccc(Cl)cc1N`, the Potency is reported as active: 7.38 µM.
For `FC(F)Sc1ccc(-n2c(-c3ccc(Cl)cc3)c[n+]3c2CCC3)cc1`, the Potency was inconclusive [inhibitor, partial curve, poor fit].
With `COc1cc(OC)cc(C(=O)N[C@H](C(=O)NCc2ccco2)C(C)C)c1` the Potency was “inactive”.
In the case of `Cc1ccc(Cl)cc1N1CCN(S(=O)(=O)c2cn(C)cn2)CC1`, the Potency is reported as “inactive”.
In the case of `CC(Oc1cccc(Cl)c1)C(=O)NC1CC(C)(C)NC(C)(C)C1` (configuration not stated), the Potency is reported as “inactive”.
In the case of `O=c1[nH]c(=O)n(-c2cc(Br)c(O)c(Br)c2)cc1Br`, the Potency is reported as “inactive”.
In the case of `O=C1CC(N2CCN(CCc3ccccn3)CC2)C(=O)N1c1ccc(Cl)cc1` (configuration not stated), the Potency is reported as “inactive”.
In the case of `CC1=NN(C(=O)c2c(Br)cnn2C)C(O)(C(F)(F)F)C1` (configuration not stated), the Potency is reported as inconclusive [inhibitor, full curve, poor fit].
